The values that follow come from PubChem BioAssay AID180 (DTP/NCI, 2004).

This assay relates to BDF1 mice, Adenocarcinoma 755 s.c., tumor weight T/C. Briefly: NCI In Vivo Anticancer Drug Screen. Data for tumor model Adenocarcinoma 755 (subcutaneous) in B6D2F1 (BDF1) mice. The settings on record: endpoint: mean tumor weight, higher = larger tumour. An outline of the steps: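 Values express treated (T) relative to vehicle-dosed control (C) animals, based on survival or tumour size measured after compound treatment of mice bearing a transplanted tumour.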

[1] abbreviates: dose: 2.0 mg/kg/injection, schedule: Q01DX011 (ip), vehicle: carboxymethylcellulose (CMC).

Not every entry of the source has a single result; some have several. Only these are listed. There may be further records. Values that stand side by side repeat one measurement (runs, samples, wells, individuals or studies).

For the compound `CCC(=O)c1cc2c(cc1CC)C(C)(C)CCC2(C)C`, the T/C is 57 % of control and 115 % of control (dose: 50.0 mg/kg/injection, schedule: Q01DX011 (ip), vehicle: carboxymethylcellulose (CMC)); 26 % of control and 66 % of control (dose: 200.0 mg/kg/injection, schedule: Q01DX011 (ip), vehicle: carboxymethylcellulose (CMC)).

As for `Nc1nc(=S)c2ncn(C3OC(CO)C(O)C3O)c2[nH]1` (configuration not stated), the T/C (dose: 0.25 mg/kg/injection, schedule: Q01DX011 (ip), vehicle: carboxymethylcellulose (CMC)) was 32 % of control and 61 % of control; the T/C (dose: 0.83 mg/kg/injection, schedule: Q01DX011 (ip), vehicle: carboxymethylcellulose (CMC)) is 20 % of control, 95 % of control, 119 % of control; the T/C (dose: 1.65 mg/kg/injection, schedule: Q01DX011 (ip), vehicle: carboxymethylcellulose (CMC)) is 5 % of control, 91 % of control, 98 % of control; the T/C (dose: 3.3 mg/kg/injection, schedule: Q01DX011 (ip), vehicle: carboxymethylcellulose (CMC)) is reported as 5 % of control, 90 % of control, 121 % of control; the T/C (dose: 6.6 mg/kg/injection, schedule: Q01DX011 (ip), vehicle: carboxymethylcellulose (CMC)) is 75 % of control and 112 % of control.

On to `CCCC(=O)OCC1OC(n2cnc3c(=S)nc(N)[nH]c32)C(OC(=O)CCC)C1OC(=O)CCC` (configuration not stated), for which the T/C was 28 % of control and 67 % of control (dose: 0.88 mg/kg/injection, schedule: Q01DX011 (ip), vehicle: saline); 10 % of control and 72 % of control (dose: 3.0 mg/kg/injection, schedule: Q01DX011 (ip), vehicle: carboxymethylcellulose (CMC)).

In the case of `CCN(CC)c1ccc2cc3ccc(=[N+](CC)CC)cc-3oc2c1`, the T/C (dose: 10.0 mg/kg/injection, schedule: Q01DX011 (ip), vehicle: methylcellulose (MC)) is 71 % of control and 120 % of control.

For `CC(=O)Nc1nc(Cl)c2ncn(C3CCCO3)c2n1` (configuration not stated), the T/C (dose: 120.0 mg/kg/injection, schedule: Q01DX011 (ip), vehicle: carboxymethylcellulose (CMC)) was 48 % of control and 76 % of control.

For the compound `C1CN1P1(N2CC2)=NP(N2CC2)(N2CC2)=NP(N2CC2)(N2CC2)=NP(N2CC2)(N2CC2)=N1`, the T/C runs as follows: (dose: 3.0 mg/kg/injection, schedule: Q01DX011 (oral), vehicle: carboxymethylcellulose (CMC)) 85 % of control and 112 % of control; (dose: 6.0 mg/kg/injection, schedule: Q01DX011 (oral), vehicle: carboxymethylcellulose (CMC)) 39 % of control and 85 % of control; (dose: 12.0 mg/kg/injection, schedule: Q01DX011 (oral), vehicle: carboxymethylcellulose (CMC)) 22 % of control and 115 % of control; (dose: 25.0 mg/kg/injection, schedule: Q01DX011 (oral), vehicle: carboxymethylcellulose (CMC)) 25 % of control and 72 % of control; (dose: 50.0 mg/kg/injection, schedule: Q01DX011 (oral), vehicle: carboxymethylcellulose (CMC)) 8 % of control and 48 % of control.

Consider `[Br][Hg][CH2]C1COC([CH2][Hg][Br])CO1` (configuration not stated), for which the T/C (dose: 25.0 mg/kg/injection, schedule: Q01DX011 (ip), vehicle: carboxymethylcellulose (CMC)) was 40 % of control and 66 % of control.

Turning to `O=c1cc2[nH]c(O)cn2c(=O)[nH]1`, the T/C (dose: 60.0 mg/kg/injection, schedule: Q01DX011 (ip), vehicle: carboxymethylcellulose (CMC)) is 34 % of control and 102 % of control.

For the compound `C1CN1P1(N2CC2)=NP(N2CC2)(N2CC2)=NP(N2CC2)(N2CC2)=N1`, the T/C was 58 % of control and 100 % of control (dose: 0.7 mg/kg/injection, schedule: Q01DX011 (ip), vehicle: methylcellulose (MC)); 69 % of control and 97 % of control (dose: 1.5 mg/kg/injection, schedule: Q01DX011 (ip), vehicle: methylcellulose (MC)); 42 % of control and 95 % of control (dose: 3.0 mg/kg/injection, schedule: Q01DX011 (ip), vehicle: methylcellulose (MC)).

On to `C1CN1c1nc(N2CC2)nc(N2CC2)n1`, for which the T/C is 80 % of control and 123 % of control (dose: 156.0 micrograms/kg/injection, schedule: Q01DX011 (ip), vehicle: carboxymethylcellulose (CMC)); 58 % of control, 89 % of control, 90 % of control (dose: 195.0 micrograms/kg/injection, schedule: Q01DX011 (ip), vehicle: carboxymethylcellulose (CMC)); 40 % of control, 69 % of control, 118 % of control (dose: 390.0 micrograms/kg/injection, schedule: Q01DX011 (ip), vehicle: carboxymethylcellulose (CMC)).

Regarding `C[C@@H]1C[C@@H]([C@H](O)CC2CC(=O)NC(=O)C2)C(=O)[C@@H](C)C1`, the T/C (dose: 20.0 mg/kg/injection, schedule: Q01DX011 (ip), vehicle: alkali diluted with saline) is 65 % of control and 122 % of control; the T/C (dose: 20.0 mg/kg/injection, schedule: Q#A X022 (ip), vehicle: alkali diluted with saline) is 69 % of control and 110 % of control; the T/C (dose: 40.0 mg/kg/injection, schedule: Q01DX011 (im), vehicle: alkali diluted with saline) was 32 % of control and 64 % of control; the T/C (dose: 40.0 mg/kg/injection, schedule: Q01DX011 (ip), vehicle: alkali diluted with saline) was 78 % of control, 98 % of control, 106 % of control.

With `C[C@]12CCC(=O)C=C1CC[C@@H]1[C@@H]2[C@@H](O)C[C@@]2(C)[C@H]1CC[C@]2(O)C(=O)COC(=O)CCC(=O)O`, the T/C (dose: 87.5 mg/kg/injection, schedule: Q01DX011 (sc), vehicle: steriod suspending solution) was 29 % of control and 82 % of control; the T/C (dose: 175.0 mg/kg/injection, schedule: Q01DX011 (sc), vehicle: steriod suspending solution) is 26 % of control and 61 % of control; the T/C (dose: 350.0 mg/kg/injection, schedule: Q01DX011 (sc), vehicle: steriod suspending solution) is 15 % of control and 42 % of control.

On to `c1nc(SC2CCCC2)c2[nH]cnc2n1`, for which, for the setting “dose: 5.0 mg/kg/injection, schedule: Q01DX011 (ip), vehicle: carboxymethylcellulose (CMC)”, the T/C was 8 % of control and 59 % of control.

On to `OCCOCCN1CCN(CCCN2c3ccccc3Sc3ccc(C(F)(F)F)cc32)CC1`, for which the T/C (dose: 10.0 mg/kg/injection, schedule: Q01DX011 (ip), vehicle: saline) was 48 % of control and 99 % of control.

For `CCNc1nncs1`, the T/C was 53 % of control and 110 % of control (dose: 45.5 mg/kg/injection, schedule: Q01DX011 (ip), vehicle: carboxymethylcellulose (CMC)); 32 % of control and 112 % of control (dose: 113.8 mg/kg/injection, schedule: Q01DX011 (ip), vehicle: carboxymethylcellulose (CMC)).

Consider `CCCn1cnc2c(=S)nc[nH]c21`, for which the T/C (dose: 0.37 mg/kg/injection, schedule: Q01DX011 (ip), vehicle: carboxymethylcellulose (CMC)) was 66 % of control and 103 % of control; the T/C (dose: 0.75 mg/kg/injection, schedule: Q01DX011 (ip), vehicle: carboxymethylcellulose (CMC)) is 68 % of control and 150 % of control; the T/C (dose: 1.5 mg/kg/injection, schedule: Q01DX011 (ip), vehicle: carboxymethylcellulose (CMC)) was 32 % of control and 60 % of control; the T/C under setting [1] was 9 % of control and 35 % of control.

Turning to `CC1(C)O[C@@H]2C[C@H]3[C@@H]4CCC5=CC(=O)C=C[C@]5(C)[C@@]4(F)[C@@H](O)C[C@]3(C)[C@]2(C(=O)CO)O1`, the T/C (dose: 1.5 mg/kg/injection, schedule: Q01DX011 (sc), vehicle: steriod suspending solution) was 28 % of control and 90 % of control.

In the case of `CC(=O)[C@H]1CC[C@H]2[C@@H]3C[C@H](F)C4=CC(=O)CC[C@]4(C)[C@H]3C(=O)C[C@]12C`, the T/C reads like this: (dose: 14.0 mg/kg/injection, schedule: Q01DX011 (sc), vehicle: steriod suspending solution) 35 % of control, 52 % of control, 108 % of control; (dose: 27.5 mg/kg/injection, schedule: Q01DX011 (sc), vehicle: steriod suspending solution) 26 % of control and 53 % of control.

Consider `Nc1ncnc2c1cnn2CCCl`, for which the T/C reads like this: under setting [1], 48 % of control and 112 % of control; (dose: 8.0 mg/kg/injection, schedule: Q01DX011 (ip), vehicle: carboxymethylcellulose (CMC)) 52 % of control and 88 % of control.

For the compound `O=C(O)Cn1cccc1`, the T/C by setting is: (dose: 1000.0 mg/kg/injection, schedule: Q01DX011 (ip), vehicle: other) 67 % of control and 94 % of control; (dose: 2000.0 mg/kg/injection, schedule: Q01DX011 (ip), vehicle: other) 52 % of control and 85 % of control.

Regarding `Cc1nc2nc(N)nc(N)c2nc1C`, the T/C by setting is: (dose: 25.25 mg/kg/injection, schedule: Q01DX011 (ip), vehicle: carboxymethylcellulose (CMC)) 34 % of control, 89 % of control, 109 % of control; (dose: 31.25 mg/kg/injection, schedule: Q01DX011 (ip), vehicle: carboxymethylcellulose (CMC)) 119 % of control and 158 % of control; (dose: 50.5 mg/kg/injection, schedule: Q01DX011 (ip), vehicle: carboxymethylcellulose (CMC)) 58 % of control and 90 % of control; (dose: 101.0 mg/kg/injection, schedule: Q01DX011 (ip), vehicle: carboxymethylcellulose (CMC)) 45 % of control and 72 % of control.

With `Nc1ncnc2c1cnn2Cc1ccc(Cl)cc1`, the T/C runs as follows: (dose: 19.0 mg/kg/injection, schedule: Q01DX011 (ip), vehicle: carboxymethylcellulose (CMC)) 26 % of control and 91 % of control; (dose: 37.5 mg/kg/injection, schedule: Q01DX011 (ip), vehicle: carboxymethylcellulose (CMC)) 7 % of control and 74 % of control.
